# In PubChem BioAssay AID2147 (National Center for Advancing Translational Sciences (NCATS), 2009):
# Values joined by “and” are separate entries in the source; they are usually repeats but may differ in a detail not shown here. Equal entries are not always repeated. About 3,600 (1.6%) of roughly 230,000 compounds were called active. Inconclusive means that the source gave no clear call. Such entries were picked first, then a sample of the others. Calls follow the shape of the dose curve; as a rule, active = well fitted inhibition curve with a large enough effect (not every such curve was filed as active); inconclusive = small, poorly fitted or top-dose-only effect, or another doubt; inactive = no such curve, though single readings can be large or run the other way. Potencies beside an inconclusive call are fits to weak or partial responses and may not hold up.
# Target: Lysine-specific demethylase 4E (Homo sapiens) (UniProt B2RXH2)
# Sequence of UniProt B2RXH2 (B2RXH2 whole entry, looked up, the tested form may be a part): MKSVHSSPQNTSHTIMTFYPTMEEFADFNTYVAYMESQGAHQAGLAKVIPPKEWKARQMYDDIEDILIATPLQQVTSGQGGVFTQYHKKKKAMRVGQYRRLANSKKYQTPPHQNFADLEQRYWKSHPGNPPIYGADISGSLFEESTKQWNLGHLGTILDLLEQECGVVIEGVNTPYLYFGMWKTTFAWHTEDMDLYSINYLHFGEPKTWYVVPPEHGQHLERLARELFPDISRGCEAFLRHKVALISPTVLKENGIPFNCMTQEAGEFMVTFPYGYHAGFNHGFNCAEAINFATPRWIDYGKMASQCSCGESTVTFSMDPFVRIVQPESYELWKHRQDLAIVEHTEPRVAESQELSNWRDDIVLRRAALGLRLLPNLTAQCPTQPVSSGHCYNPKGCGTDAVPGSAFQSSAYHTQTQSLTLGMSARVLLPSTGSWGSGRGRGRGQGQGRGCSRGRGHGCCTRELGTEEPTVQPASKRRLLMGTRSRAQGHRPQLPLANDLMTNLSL
# Assay: qHTS Assay for Inhibitors of Human Jumonji Domain Containing 2E (JMJD2E)
# Details: JMJD2E catalytic domain, FDH-coupled NADH fluorescence (FDH is formaldehyde dehydrogenase); series mostly up to 57.1 µM
# Also: nearly all actives have a fitted effect of over 50% in size.
# Potency is read from the fitted curve at half-maximal effect; tags tell the direction and shape of the fitted curve.
row,Compound,Potency
1,Cc1ccc(NC(=O)CN(C)CC(=O)Nc2cccc(F)c2)cc1S(=O)(=O)N1CCCCCC1,"inconclusive: 25.1 µM [inhibitor, single point]"
2,Clc1ccc(C2=C3CCCCn4c(-c5ccccc5)c[n+](c43)C2)cc1,"inconclusive: 35.5 µM [inhibitor, single point]"
3,CC(C)OC(=O)/C(=C\c1ccccc1)NC(=O)c1ccccc1,"inconclusive: 39.8 µM [inhibitor, single point]"
4,CCCCCCCC(=O)NNC(=O)c1c(O)c2ccccc2n(CCC)c1=O,"inconclusive: 39.8 µM [inhibitor, single point]"
5,CCCNC(=O)c1c(N)n(-c2cccc(OC)c2)c2nc3ccccc3nc12,"inconclusive: 28.2 µM [inhibitor, partial curve]"
6,C=CCNC(=O)CC1C(=O)NCCN1Cc1ccc(-c2ccccc2)cc1 (stereo unspecified),inactive
7,Cc1ccc(S(=O)(=O)N2C=CC(C(F)(F)F)=NCC2)cc1,inactive
8,COc1cccc(-c2cc(C(F)(F)F)c(C#N)c(=O)[nH]2)c1,"inconclusive: 0.562 µM [inhibitor, partial curve, poor fit]"
9,CC(C)CCn1c(-c2nonc2N)nc2ccccc21,inactive
10,O=C(COc1c(Br)cc(Br)c2cccnc12)N1CCc2ccccc2C1,"inconclusive: 35.5 µM [inhibitor, single point]"
11,COc1ccc2nc(SCC(=O)N3CCCCCC3)c(C#N)cc2c1,"inconclusive: 39.8 µM [inhibitor, single point]"
12,Nc1nn(-c2ccccc2)nc1C(=O)OCc1ccccc1F,"inconclusive: 31.6 µM [inhibitor, partial curve]"
13,NC(=S)N/N=C/c1coc2cc(Br)ccc2c1=O,inactive
14,O=C1NCCc2c1[nH]c1ccccc21,"inconclusive: 28.2 µM [inhibitor, partial curve] and inconclusive: 31.6 µM [inhibitor, partial curve]"
15,CCN(CC)S(=O)(=O)c1cc(NS(=O)(=O)c2cccc(Cl)c2Cl)ccc1C,inactive
16,Cc1nc(NC2CCCCC2)c2nc(-c3ccccc3)n(CC3CCN(C)CC3)c2n1,"inconclusive: 25.1 µM [inhibitor, partial curve]"
17,O=C1c2ccccc2C(=O)C12OC2c1ccc(Cl)cc1 (stereo unspecified),"inconclusive: 6.31 µM [inhibitor, single point]"
18,COc1cccc(C(=O)Nc2nc(-c3ccc(S(=O)(=O)N4CCOCC4)cc3)cs2)c1,"inconclusive: 31.6 µM [inhibitor, partial curve]"
19,O=C(CSc1nc2ccc(NC(=O)CSc3nnnn3-c3ccccc3)cc2s1)Nc1ccccc1,inactive
20,Cc1ccc(NC(=O)Nc2ccccc2C(N)=O)cc1,"inconclusive: 31.6 µM [inhibitor, single point]"
21,CC(C)C[C@@H](CC(=O)N[C@@H](CCC(=O)O)CC(=O)O)NC(=O)[C@@H]1CCCC[C@H]1NC(=O)C[C@@H](NC(=O)C[C@H](Cc1c[nH]c2ccccc12)NC(=O)[C@@H]1CNCC[C@H]1N)C(C)C,inactive
22,CCc1n(CC(O)COC2CCCCC2)c2ccccc2[n+]1C (stereo unspecified),active: 10 µM
23,NC(=S)NNc1ccc(Cl)c(Cl)c1,inactive
24,COc1cc(NC(=O)c2ccc(Br)o2)ccc1NC(=O)c1ccccc1Cl,"inconclusive: 25.1 µM [inhibitor, single point]"

row,Compound,Potency
1,CCN1CCN(c2nc3ccccc3nc2C(C#N)S(=O)(=O)c2ccc(C)c(C)c2)CC1 (stereo unspecified),"inconclusive: 39.8 µM [inhibitor, single point]"
2,CCOCCCn1c(NN)nc2ccccc2c1=O,"inconclusive: 35.5 µM [inhibitor, single point]"
3,Cc1ccc(NC(=O)c2cc(N3C(=O)C4CC=CCC4C3=O)ccc2N2CCCCC2)cc1 (stereo unspecified),inactive
4,CCC1(c2ccc(Cl)cc2)NC(=S)N(c2ccc(C)cc2)N1 (stereo unspecified),"inconclusive: 39.8 µM [inhibitor, single point]"
5,C/C(Cc1ccccc1)=N/NC(=O)CCCC(=O)N/N=C(/C)Cc1ccccc1,inactive
6,COc1ccc(-n2nc(C(=O)NCc3ccco3)c3ccccc3c2=O)cc1,"inconclusive: 28.2 µM [inhibitor, partial curve]"
7,O=C(c1ccc2c3n(nc2c1)-c1ccccc1CO3)N1CCOCC1,"inconclusive: 28.2 µM [inhibitor, partial curve]"
8,Fc1c(CSC(=S)N2CCOCC2)cccc1CSC(=S)N1CCOCC1,inactive
9,Cc1cccc(C)c1OCc1nc2ccccc2c(=O)n1/N=C/c1c[nH]c2ccccc12,"inconclusive: 35.5 µM [inhibitor, single point]"
10,CCOC(=O)c1cnc(-n2nc(C)cc2C)nc1NNc1cc(C)nc(-c2ccccc2)n1,"inconclusive: 31.6 µM [inhibitor, single point]"
11,COc1ccccc1Cn1[nH]nnc1=S,"inconclusive: 6.31 µM [inhibitor, full curve, poor fit]"
12,O=C(Nc1cccnc1)Nc1cc(Cl)cc(Cl)c1,inactive
13,COc1cc(-c2nc3ccccn3c2/N=C/c2ccccc2)ccc1O,"inconclusive: 25.1 µM [inhibitor, partial curve]"
14,O=C(O)CSc1ccnc2cc(Cl)ccc12,"inconclusive: 35.5 µM [inhibitor, single point]"
15,COc1ccc(Br)cc1C(=O)Nc1ccc(NC(=O)c2ccco2)cc1,"inconclusive: 28.2 µM [inhibitor, partial curve]"
16,CCn1cc(Br)c(C(=O)Nc2ccccc2C(=O)OC)n1,"inconclusive: 39.8 µM [inhibitor, single point]"
17,COc1cc(C2Oc3cc(C4Oc5cc(O)cc(O)c5C(=O)C4O)ccc3OC2CO)ccc1O (stereo unspecified),inactive
18,CC1CCCCC1NCC(=O)Nc1ccccc1-c1ccccc1 (stereo unspecified),inactive
19,CCc1nc(N)c(C#N)c(-c2cccc3ccccc23)c1C,"inconclusive: 22.4 µM [inhibitor, partial curve]"
20,Cc1ccc(Sc2ccc(/C=N/O)cc2[N+](=O)[O-])cc1,inactive
21,Cc1ccc2cc3cc(C(=O)NCCN4CCOCC4)oc3nc2c1,"inconclusive: 31.6 µM [inhibitor, partial curve]"
22,CC[n+]1c(C)cc2c(sc3ccccc32)c1C,"inconclusive: 31.6 µM [inhibitor, partial curve]"
23,S=C(NCCc1ccccn1)Nc1cc(Cl)cc(Cl)c1,"inconclusive: 0.355 µM [inhibitor, partial curve]"
24,COc1ccc2c(c1)C1(Nc3ccccc3-c3nc4ccccc4n31)C(=O)N2C (stereo unspecified),"inconclusive: 28.2 µM [inhibitor, single point]"

row,Compound,Potency
1,COc1ccc(-c2ccnc3c(C(=O)O)cnn23)cc1,"inconclusive: 35.5 µM [inhibitor, partial curve]"
2,CCN1C(=O)C(O)(C2COC(C)(C)CC2=O)c2cc(Br)ccc21 (stereo unspecified),inactive
3,CN1CC=C2C(C#N)=C(N)C(C#N)(C#N)C(Cc3ccccc3)C2C1 (stereo unspecified),"inconclusive: 25.1 µM [inhibitor, partial curve]"
4,N#Cc1ncc(-c2ccc3c(c2)OCCOCCOCCOCCOCCO3)nc1C#N,inactive
5,COc1ccccc1Nc1nc(-c2sc(NC(=O)CC(C)C)nc2C)cs1,"inconclusive: 31.6 µM [inhibitor, single point]"
6,COc1cc2c(ccc3cc(OC)c(OC)c(O)c32)cc1O,"inconclusive: 31.6 µM [inhibitor, partial curve]"
7,COc1cc(OC)cc(C(=O)NCc2ccc3c(c2)cc(C)n3C)c1,inactive
8,COC(=O)/C(=C\Nc1ccc(Cl)c2ccccc12)c1ncc(C(F)(F)F)cc1Cl,"inconclusive: 39.8 µM [inhibitor, partial curve, poor fit]"
9,CCCCOc1ccc(-c2nc(-c3cccnc3)no2)cc1,inactive
10,Cn1nnnc1SCc1cn2cccnc2n1,"inconclusive: 28.2 µM [inhibitor, partial curve]"
11,CN1CCN(C(=S)c2cn(Cc3ccccc3F)c3ccccc23)CC1,inactive
12,O=C(O)c1cc(N/N=C/c2ccc(N3CCOCC3)s2)ccc1Cl,"inconclusive: 31.6 µM [inhibitor, partial curve]"
13,COc1ccc(C2NC(C(=O)O)Cc3c2[nH]c2ccccc32)cc1CN1CCN(c2ccc(F)cc2)CC1 (stereo unspecified),"inconclusive: 25.1 µM [inhibitor, partial curve]"
14,CCCn1cnc2cc(NCc3cccc(OC)c3O)ccc21,"inconclusive: 22.4 µM [inhibitor, partial curve]"
15,CCOCCCn1c(C)nc2c(c1=O)c1nc3ccccc3nc1n2-c1ccc2c(c1)OCCO2,inactive
16,COc1cccc(C2C(C#N)=C(N)Oc3c2oc(CO)cc3=O)c1OC (stereo unspecified),inactive
17,COc1ccc(C(NC(C)=O)c2cc(Cl)c3cccnc3c2O)cc1OC (stereo unspecified),inactive
18,Cc1sc2nc(C(C)Nc3ccccc3N3CCOCC3)[nH]c(=O)c2c1C (stereo unspecified),"inconclusive: 28.2 µM [inhibitor, single point]"
19,COc1ccccc1NS(=O)(=O)c1cccc(C(=O)NCc2ccco2)c1,inactive
20,CC1(C)Cc2c(c(N3CCOCC3)nc3sc4c(NN)ncnc4c23)CS1,"inconclusive: 39.8 µM [inhibitor, single point]"
21,CN(C)CCOc1ccc2ccccc2c1,"inconclusive: 31.6 µM [inhibitor, single point]"
22,CC1(C)Cc2nc3sc4c(N(CCO)CCO)ncnc4c3cc2CO1,"inconclusive: 31.6 µM [inhibitor, partial curve]"
23,CC(=O)c1ccc(-c2ccc([C@H]3[C@H]4C=CC[C@@H](C)[C@@H]4C(=O)N3Cc3ccccc3)c(F)c2)cc1,"inconclusive: 39.8 µM [inhibitor, single point]"
